The source of these data is PMC4336329 (PLoS ONE, 2015).

Hit rate of the full screen: of about 310,000 compounds, about 2,200 (0.71%) showed an effect of 50% or more. The effect is printed as a negative number. The list shows a part of the results.

The target of the test is human ether-à-go-go-related gene (hERG) potassium channel (human, UniProt Q12809). Kind of test: primary screen, population patch clamp on CHO cells stably expressing hERG.
human ether-à-go-go-related gene (hERG) potassium channel, sequence (Q12809 whole entry, looked up): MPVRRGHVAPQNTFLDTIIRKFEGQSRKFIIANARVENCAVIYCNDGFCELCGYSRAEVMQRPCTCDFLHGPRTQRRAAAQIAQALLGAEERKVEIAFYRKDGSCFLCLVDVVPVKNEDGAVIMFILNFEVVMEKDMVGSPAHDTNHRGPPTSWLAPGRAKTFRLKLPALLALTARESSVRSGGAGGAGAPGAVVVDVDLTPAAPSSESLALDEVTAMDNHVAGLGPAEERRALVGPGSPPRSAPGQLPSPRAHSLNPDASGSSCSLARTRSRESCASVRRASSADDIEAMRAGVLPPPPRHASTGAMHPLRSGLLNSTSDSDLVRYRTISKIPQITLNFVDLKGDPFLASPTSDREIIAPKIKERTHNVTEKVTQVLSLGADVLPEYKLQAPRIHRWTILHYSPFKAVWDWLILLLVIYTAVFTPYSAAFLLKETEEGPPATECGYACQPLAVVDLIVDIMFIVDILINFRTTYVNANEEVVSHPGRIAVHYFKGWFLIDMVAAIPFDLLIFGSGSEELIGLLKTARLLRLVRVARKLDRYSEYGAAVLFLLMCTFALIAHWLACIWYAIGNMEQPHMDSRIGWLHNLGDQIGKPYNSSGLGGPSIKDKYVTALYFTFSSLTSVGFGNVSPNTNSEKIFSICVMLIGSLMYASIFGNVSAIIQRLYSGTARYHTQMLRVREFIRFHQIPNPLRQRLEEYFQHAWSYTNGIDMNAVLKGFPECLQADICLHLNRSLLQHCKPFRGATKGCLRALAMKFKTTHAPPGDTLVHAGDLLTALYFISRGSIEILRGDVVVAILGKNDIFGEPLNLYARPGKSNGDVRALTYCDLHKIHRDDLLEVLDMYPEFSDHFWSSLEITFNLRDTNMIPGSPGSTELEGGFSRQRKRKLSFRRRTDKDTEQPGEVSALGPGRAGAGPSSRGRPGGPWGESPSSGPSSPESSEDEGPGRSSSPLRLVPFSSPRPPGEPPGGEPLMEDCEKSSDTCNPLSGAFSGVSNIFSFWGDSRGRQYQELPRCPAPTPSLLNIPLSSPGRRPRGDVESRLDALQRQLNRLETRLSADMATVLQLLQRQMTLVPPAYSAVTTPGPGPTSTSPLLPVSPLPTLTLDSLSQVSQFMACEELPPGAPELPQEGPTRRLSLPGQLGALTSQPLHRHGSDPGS
In the case of `O=C(O)c1ccccc1Nc1ccnc(C(F)(F)F)c1`, the “hERG current change (%, negative = inhibition) at 1uM” value came to 13.9%.
In the case of `C=CCNS(=O)(=O)c1ccc(OCC(=O)OC)cc1` it was 4.49%; in that of `Cc1ccc(C(=O)N2CC3(C(C)C)CN(C(=O)c4ccc(C)cc4)CC(C(C)C)(C2)C3=O)cc1`, -0.155%.
In the case of `CCC(=O)Oc1ccc2oc(=O)cc(C)c2c1` it was 12.9%.
As to `O=C(c1cccc([N+](=O)[O-])c1)N1CCN(c2ccccn2)CC1`, the “hERG current change (%, negative = inhibition) at 1uM” value stood at 5.24%.
For `O=C(O)c1ccc(N2C(=O)c3cccc4c(C(=O)O)ccc(c34)C2=O)cc1` the value was 20.4%.
In the case of `COC(=O)[C@H]1[C@@H](C)N(CCc2cc(OC)c(OC)c(OC)c2)C(=O)N[C@H]1c1ccccc1`, the “hERG current change (%, negative = inhibition) at 1uM” value amounted to 5.47%.
For `CC(C)c1nc(CNC(=O)CC2C(=O)NCCN2Cc2cccc(F)c2F)cs1` (centres unmarked) the value was 0.765%; for `Brc1ccc(-c2nn3c(-c4ccco4)nnc3s2)o1`, -1.41%; for `CCOC(=O)C1CCN(C(=O)C2(NC(=O)Nc3ccccc3Cl)CCCCC2)CC1`, -3.58%.
For `O=C(Nc1ccc(F)cc1F)C1CCN(C(=O)c2ccc(Br)cc2)CC1` the value was 6.25%; for `CCc1nnc(NS(=O)(=O)c2ccc(N)cc2)s1`, 10.6%; for `Cc1cc(N=Cc2cc(Cl)ccc2O)no1`, 1.39%.
Regarding `CN(CC(=O)Nc1ccccc1F)CC(=O)Nc1ccc(F)c(F)c1F`, the “hERG current change (%, negative = inhibition) at 1uM” value came out at 11.8%.
On to `N#Cc1cnn(Cc2ccccc2)c1/N=C/N1CCOCC1`, for which the “hERG current change (%, negative = inhibition) at 1uM” value worked out at 4.04%.
In the case of `COc1ccc(-c2nc3c(n2O)CCC/C3=N\O)cc1` it was -1.25%; in that of `COc1ccccc1OCC(=O)Nn1c(=S)[nH]c2ncccc2c1=O`, 18.9%; in that of `Cc1cc(C)cc(N(CC(=O)N2CCN(Cc3ccccc3)CC2)S(=O)(=O)c2c(C)noc2C)c1`, 4.41%.
As for `N#Cc1ccc(S(=O)(=O)N2CCCN(c3nc4ccc(Cl)cc4s3)CC2)cc1`, the “hERG current change (%, negative = inhibition) at 1uM” value is on record as 1.25%.
On to `CN(C)/C=C/c1oc2ccc(O)cc2c1[N+](=O)[O-]`, for which the “hERG current change (%, negative = inhibition) at 1uM” value worked out at 13.4%.
For `Nc1ccccc1Sc1ccc(C(F)(F)F)cc1[N+](=O)[O-]` the value was 5.26%; for `CC(C)CC(=O)N1CC(=O)Nc2ccc(F)cc2C1c1ccccc1` (centres unmarked), 8.7%.
In the case of `CC(C)c1nc2sc3c(=O)[nH]cnc3c2c2c1CCC2` it was 0.538%; in that of `COC(=O)c1ccccc1NC(=O)CSc1nc(Nc2ccccc2)nc(N2CCOCC2)n1`, -5.58%.
For `CNC(=O)CSc1nc2cccnc2n1C1CCCCC1` the value was 14.7%; for `CCc1nc(C)cc2c1sc1ccccc12.Cl`, 5.22%.
With `CCn1cc(C(=O)NCC2CCCO2)c(=O)c2cc(S(=O)(=O)N3CCCCCC3)ccc21` (centres unmarked), the “hERG current change (%, negative = inhibition) at 1uM” value is reported as -2.99%.
For `O=C(COc1ccccc1)NCC(=O)N/N=C/c1ccc(Cl)cc1` the value was 6.92%; for `CCN(CC)S(=O)(=O)c1ccc(-c2nnc(SCC(=O)Nc3cc(OC)cc(OC)c3)o2)cc1`, -11.4%.
For `O=C(N/N=C/c1cn[nH]c1-c1ccc(Cl)cc1)c1ccc([N+](=O)[O-])cc1`, the “hERG current change (%, negative = inhibition) at 1uM” value is -2.03%.
As to `O=C(C1=C(O)C(=O)N(CCOCCO)C1c1cccs1)c1cccs1` (centres unmarked), the “hERG current change (%, negative = inhibition) at 1uM” value worked out at 8.78%.
In the case of `COc1cc(CC(=O)OCC(=O)NC2CCCC2)cc(OC)c1OC` it was 17.1%.
In the case of `O=C(OCC(=O)N1CCCc2ccccc21)c1c(F)cccc1F` it was 16.5%; in that of `CCN1CCN(c2ccccc2NC(=O)c2ccc(-n3cccn3)cc2)CC1`, -5.59%.
For `Cc1nnc(NC(=O)CSc2nc(CC(C)C)nc3c2c(=O)n(C)c(=O)n3C)s1` the value was 0.95%.
Regarding `CCC(=O)c1ccc(OCC(=O)NC2CCCC2)cc1`, the “hERG current change (%, negative = inhibition) at 1uM” value is 18.5%.
In the case of `COc1ccc(Nc2cc(Cl)nc(N)n2)cc1OC` it was 13.5%; in that of `COc1ccc(/C=C(/NC(=O)c2ccc(C)cc2)C(=O)NCc2ccncc2)cc1`, -21.3%.
In the case of `Cc1c(Br)c([N+](=O)[O-])nn1CC(=O)NCc1cccnc1` it was -3.68%; in that of `O=c1oc2ccc(Br)cc2cc1-c1nc2ccccc2o1`, 12%; in that of `O=C(O)C1CCCC[C@H]1C(=O)Nc1ncc([N+](=O)[O-])s1` (some centres unmarked), 9.02%.
In the case of `Cc1cccnc1Nc1nc(-c2ccc(O)cc2)cs1` it was 0.894%.
With `CCN(CC(=O)NCc1ccc(F)cc1)C(=O)c1ccc(C)o1`, the “hERG current change (%, negative = inhibition) at 1uM” value stood at 12.4%.
For `CN1c2ccccc2Oc2nnc(N3CCN(Cc4ccccc4)CC3)cc21` the value was -46.6%.
